Laboratory results: PMC9911399, “Two distinct binding modes provide the RNA-binding protein RbFox with extraordinary sequence specificity”
Substitutions are numbered along the chain they refer to; changes in the protein carry UniProt numbers. The list shows a part of the results.

T1: RBFOX1 RRM (Homo sapiens, UniProt Q9NWB1 109-208)
T1 sequence: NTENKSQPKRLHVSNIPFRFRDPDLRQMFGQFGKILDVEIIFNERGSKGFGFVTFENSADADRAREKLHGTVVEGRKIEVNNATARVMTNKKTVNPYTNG

B1: AGUGCUC (DNA:RNA)
RNA: GGGAGACCGGAAUUCAGAUUGUCCAGUGCUCUUAAAUCCCGUCGUAGCCACCA
DNA 1: CAATCTGAATTCCGGTCTCCC
DNA 2: TGGTGGCTACGACGGGATT
B2: GCGUGCG (DNA:RNA)
RNA: GGGAGACCGGAAUUCAGAUUGUCCGCGUGCGUUAAAUCCCGUCGUAGCCACCA
DNA 1: CAATCTGAATTCCGGTCTCCC
DNA 2: TGGTGGCTACGACGGGATT
B3: CCCGGCG (DNA:RNA)
RNA: B2 RNA with G25C, G27C, U28G
DNA 1: CAATCTGAATTCCGGTCTCCC
DNA 2: TGGTGGCTACGACGGGATT
B4: CCGAACG (DNA:RNA)
RNA: B2 RNA with G25C, U28A, G29A
DNA 1: CAATCTGAATTCCGGTCTCCC
DNA 2: TGGTGGCTACGACGGGATT
B5: GAUACGG (DNA:RNA)
RNA: B1 RNA with A25G, G26A, G28A, U30G, C31G
DNA 1: CAATCTGAATTCCGGTCTCCC
DNA 2: TGGTGGCTACGACGGGATT
B6: AAUGAUA (DNA:RNA)
RNA: B1 RNA with G26A, C29A, C31A
DNA 1: CAATCTGAATTCCGGTCTCCC
DNA 2: TGGTGGCTACGACGGGATT
B7: UAUCCCG (DNA:RNA)
RNA: B1 RNA with A25U, G26A, G28C, U30C, C31G
DNA 1: CAATCTGAATTCCGGTCTCCC
DNA 2: TGGTGGCTACGACGGGATT
B8: CGCAAGG (DNA:RNA)
RNA: B1 RNA with A25C, U27C, G28A, C29A, U30G, C31G
DNA 1: CAATCTGAATTCCGGTCTCCC
DNA 2: TGGTGGCTACGACGGGATT
B9: CUUUCAC (DNA:RNA)
RNA: B1 RNA with A25C, G26U, G28U, U30A
DNA 1: CAATCTGAATTCCGGTCTCCC
DNA 2: TGGTGGCTACGACGGGATT
B10: UAAGAUG (DNA:RNA)
RNA: B1 RNA with A25U, G26A, U27A, C29A, C31G
DNA 1: CAATCTGAATTCCGGTCTCCC
DNA 2: TGGTGGCTACGACGGGATT
B11: CCUUAGC (DNA:RNA)
RNA: B1 RNA with A25C, G26C, G28U, C29A, U30G
DNA 1: CAATCTGAATTCCGGTCTCCC
DNA 2: TGGTGGCTACGACGGGATT
B12: GGAUUCG (DNA:RNA)
RNA: B2 RNA with C26G, G27A, G29U
DNA 1: CAATCTGAATTCCGGTCTCCC
DNA 2: TGGTGGCTACGACGGGATT
B13: UAAUAAG (DNA:RNA)
RNA: B2 RNA with G25U, C26A, G27A, G29A, C30A
DNA 1: CAATCTGAATTCCGGTCTCCC
DNA 2: TGGTGGCTACGACGGGATT
B14: CUCUUGC (DNA:RNA)
RNA: B1 RNA with A25C, G26U, U27C, G28U, C29U, U30G
DNA 1: CAATCTGAATTCCGGTCTCCC
DNA 2: TGGTGGCTACGACGGGATT
B15: UAGUGCU (DNA:RNA)
RNA: B2 RNA with G25U, C26A, G31U
DNA 1: CAATCTGAATTCCGGTCTCCC
DNA 2: TGGTGGCTACGACGGGATT
B16: AGAGUAU (DNA:RNA)
RNA: B1 RNA with U27A, C29U, U30A, C31U
DNA 1: CAATCTGAATTCCGGTCTCCC
DNA 2: TGGTGGCTACGACGGGATT
B17: CGUGAGG (DNA:RNA)
RNA: B1 RNA with A25C, C29A, U30G, C31G
DNA 1: CAATCTGAATTCCGGTCTCCC
DNA 2: TGGTGGCTACGACGGGATT
B18: GCGGUCC (DNA:RNA)
RNA: B2 RNA with U28G, G29U, G31C
DNA 1: CAATCTGAATTCCGGTCTCCC
DNA 2: TGGTGGCTACGACGGGATT
B19: GGACCGC (DNA:RNA)
RNA: B1 RNA with A25G, U27A, G28C, U30G
DNA 1: CAATCTGAATTCCGGTCTCCC
DNA 2: TGGTGGCTACGACGGGATT
B20: ACGAAGU (DNA:RNA)
RNA: B2 RNA with G25A, U28A, G29A, C30G, G31U
DNA 1: CAATCTGAATTCCGGTCTCCC
DNA 2: TGGTGGCTACGACGGGATT
B21: AGAGACA (DNA:RNA)
RNA: B1 RNA with U27A, C29A, U30C, C31A
DNA 1: CAATCTGAATTCCGGTCTCCC
DNA 2: TGGTGGCTACGACGGGATT
B22: CUACCGG (DNA:RNA)
RNA: B1 RNA with A25C, G26U, U27A, G28C, U30G, C31G
DNA 1: CAATCTGAATTCCGGTCTCCC
DNA 2: TGGTGGCTACGACGGGATT
B23: CGUGCGG (DNA:RNA)
RNA: B1 RNA with A25C, U30G, C31G
DNA 1: CAATCTGAATTCCGGTCTCCC
DNA 2: TGGTGGCTACGACGGGATT
B24: GCCACAG (DNA:RNA)
RNA: B2 RNA with G27C, U28A, G29C, C30A
DNA 1: CAATCTGAATTCCGGTCTCCC
DNA 2: TGGTGGCTACGACGGGATT
B25: CUGUCUC (DNA:RNA)
RNA: B1 RNA with A25C, G26U, U27G, G28U
DNA 1: CAATCTGAATTCCGGTCTCCC
DNA 2: TGGTGGCTACGACGGGATT
B26: AGUCGCU (DNA:RNA)
RNA: B1 RNA with G28C, C29G, U30C, C31U
DNA 1: CAATCTGAATTCCGGTCTCCC
DNA 2: TGGTGGCTACGACGGGATT
B27: CGCUCGG (DNA:RNA)
RNA: B1 RNA with A25C, U27C, G28U, U30G, C31G
DNA 1: CAATCTGAATTCCGGTCTCCC
DNA 2: TGGTGGCTACGACGGGATT
B28: GGCUAAU (DNA:RNA)
RNA: B2 RNA with C26G, G27C, G29A, C30A, G31U
DNA 1: CAATCTGAATTCCGGTCTCCC
DNA 2: TGGTGGCTACGACGGGATT
B29: UAAGCGG (DNA:RNA)
RNA: B1 RNA with A25U, G26A, U27A, U30G, C31G
DNA 1: CAATCTGAATTCCGGTCTCCC
DNA 2: TGGTGGCTACGACGGGATT
B30: AAGGUCG (DNA:RNA)
RNA: B2 RNA with G25A, C26A, U28G, G29U
DNA 1: CAATCTGAATTCCGGTCTCCC
DNA 2: TGGTGGCTACGACGGGATT
B31: GUGCUCA (DNA:RNA)
RNA: B2 RNA with C26U, U28C, G29U, G31A
DNA 1: CAATCTGAATTCCGGTCTCCC
DNA 2: TGGTGGCTACGACGGGATT

Each binder was assayed against T1, RBFOX1 RRM (assay: EMSA; HiTS-Eq, 1 nM pool, 10 min; buffer printed only for the single-RNA assays: 10 mM Tris pH 7.5, 150 mM NaCl, 3.4 mM EDTA, 0.001% NP-40, 30 C). Conditions: tags: His6 N-terminal (pET28a); label: 5' 32P.
Summary of the method: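 Relative association constants, normalised to the cognate motif, were derived by comparing read counts of each RNA species with those of the control reaction. The RNA sequenced was the free fraction, separated by 8% native PAGE after a 10 min equilibration in 50 µL of 1 nM 5′-radiolabelled RNA (7 randomized nucleotides) with increasing concentrations of purified wild-type or mutant RbFox RRM.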

Row | Binder | binding signal
1 | B1 | 0.0177 KA relative to UGCAUGU
2 | B2 | 0.017 KA relative to UGCAUGU
3 | B3 | 0.0137 KA relative to UGCAUGU
4 | B4 | 0.0118 KA relative to UGCAUGU
5 | B5 | 0.00671 KA relative to UGCAUGU
6 | B6 | 0.00488 KA relative to UGCAUGU
7 | B7 | 0.00371 KA relative to UGCAUGU
8 | B8 | 0.00874 KA relative to UGCAUGU
9 | B9 | 0.00611 KA relative to UGCAUGU
10 | B10 | 0.0133 KA relative to UGCAUGU
11 | B11 | 0.00898 KA relative to UGCAUGU
12 | B12 | 0.0153 KA relative to UGCAUGU
13 | B13 | 0.00769 KA relative to UGCAUGU
14 | B14 | 0.0102 KA relative to UGCAUGU
15 | B15 | 0.0181 KA relative to UGCAUGU
16 | B16 | 0.00544 KA relative to UGCAUGU

Row | Binder | binding signal
17 | B17 | 0.00739 KA relative to UGCAUGU
18 | B18 | 0.0182 KA relative to UGCAUGU
19 | B19 | 0.0251 KA relative to UGCAUGU
20 | B20 | 0.00549 KA relative to UGCAUGU
21 | B21 | 0.00503 KA relative to UGCAUGU
22 | B22 | 0.00617 KA relative to UGCAUGU
23 | B23 | 0.00947 KA relative to UGCAUGU
24 | B24 | 0.00921 KA relative to UGCAUGU
25 | B25 | 0.0158 KA relative to UGCAUGU
26 | B26 | 0.00547 KA relative to UGCAUGU
27 | B27 | 0.0166 KA relative to UGCAUGU
28 | B28 | 0.00988 KA relative to UGCAUGU
29 | B29 | 0.00981 KA relative to UGCAUGU
30 | B30 | 0.0162 KA relative to UGCAUGU
31 | B31 | 0.0136 KA relative to UGCAUGU
